# Assay results as given in PubChem BioAssay AID1508642 (National Center for Advancing Translational Sciences (NCATS), 2021).
# The whole screen tested about 43,000 compounds, of which about 200 (0.47%) were called active. Another 12% or so got no clear call; they are omitted. The call rests on the fitted dose curve; in most records, active means well fitted cell-killing curve with a large enough effect; inconclusive means small, poorly fitted or top-dose-only effect, or effect the other way; inactive means flat fitted curve, though single readings scatter. The list shows a part of the results.
# Test: Cell viability qHTS assay in S16 Pmp22-F2sN cells; further: nearly all actives have a fitted effect of over 65% in size
# Conditions: S16 Pmp22-F2sN Schwann cells (luciferase reporters placed in the Pmp22 gene) viability, CellTiter-Glo, 24 h; series mostly up to 57.5 µM; activity change, negative = cytotoxicity: at the top concentration
# Outline: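 Rat S16 Schwann reporter line, 24 h treatment with library compounds delivered at 23 nL per well. Cell viability by CellTiter-Glo luminescence.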
# On the % scale 0 is the no-effect control and ±100 the full control effect.
row,SMILES,"activity change, negative = cytotoxicity"
1,Cc1ccc2c(c1)c1c3n2CCN(C(=O)c2ccc(C(F)(F)F)cc2)C3CCC1 (stereo unspecified),inactive: 6.18%
2,COc1ccc(CCNC(=O)c2cc3c(=O)oc4ccc(C)cc4c3s2)cc1OC,inactive: 18.2%
3,CCNC(=O)c1cc2n(n1)CCCN(Cc1ccc(C)cc1)C2=O,inactive: -1.93%
4,COc1ccc(OCC(=O)Nc2ccc3nn(-c4ccc(OC)cc4)nc3c2)cc1,inactive: -1.03%
5,O=C(C1CCN(c2ncnc3c2nc2n3CCCCC2)CC1)N1CCN(c2ccc(Cl)cc2)CC1,inactive: 1.09%
6,Cc1nn(C(=O)c2cccc(F)c2)c(C)c1S(=O)(=O)N1CCOCC1,inactive: 7.69%
7,CCOC(=O)c1sc2ccccc2c1S(=O)(=O)N1CCN(c2cc(C)ccc2C)CC1,inactive: 1.19%
8,CCOC(=O)c1c(S(=O)(=O)N2CCC(C(=O)Nc3ccc(C)c(Cl)c3)CC2)c(C)n(C)c1C,inactive: 3.1%
9,O=C(c1cccc([N+](=O)[O-])c1)N1CCN(c2ccc(Nc3ccccc3)nn2)CC1,inactive: -4.01%
10,COc1nnc(-c2ccc(N3CCCCC3)c(NC(=O)c3ccc(C)cc3)c2)c2ccccc12,inactive: 14.7%
11,O=C(c1ccc2c(c1)N(Cc1cccc(Cl)c1)C(=O)c1ccccc1S2=O)N1CCC(Cc2ccccc2)CC1 (stereo unspecified),inactive: -19.9%
12,CCOc1cccc(CNCCCSc2nnnn2C)c1,inactive: 5.09%
13,O=S(=O)(c1ccc(-c2cnc(C3CC3)o2)cc1)N1CCN(c2ccc(F)cc2)CC1,inactive: -6.31%
14,CCn1nc(C)c2c(-c3ccccc3)cc(=O)n(C(C)C(=O)NCCc3ccc(Cl)cc3)c21 (stereo unspecified),inactive: 0.228%
15,CCOc1ccc(NC(=O)CCCn2c(C)c3cnn(-c4ccccc4)c(=O)c3c2C)cc1,inactive: -0.351%
16,COc1ccc(CCN2C(=O)N(c3cccc(OC)c3)C(=O)C2CC(=O)Nc2ccccc2)cc1 (stereo unspecified),inactive: -15.1%
17,Cc1ccc(C)c(Cn2c(=O)n(-c3ccccc3)c(=O)c3c4c(sc32)CCCC4)c1,inactive: 10.1%
18,Cc1cc2oc(=O)c(CC(=O)O)c(C)c2c2occ(-c3ccccc3)c12,inactive: -20%
19,CCOC(=O)c1c(C)[nH]c(CCC(=O)NCc2cc(OC)c(OC)c(OC)c2)c1C,inactive: 13.3%
20,Oc1c(C(c2ccccc2)N2CCCC2)sc2nc(-c3ccco3)nn12 (stereo unspecified),inactive: -0.886%
21,CCOC(=O)Cc1ccc(NC(=O)NC(C)c2c(-n3cccc3)sc(C)c2C)cc1 (stereo unspecified),inactive: 9.03%
22,CCNC(=O)CC1C(=O)N(c2ccc(C)cc2)C(=O)N1CCOC (stereo unspecified),inactive: 14.1%
23,COc1ccc(CNC(=O)CN2C(=O)CCn3nc(-c4cn(C)c5ccccc45)cc32)cc1,inactive: 1.78%
24,Cc1ccc(-c2noc(-c3nnn(CC(=O)Nc4ccc(C)c(Cl)c4)c3N)n2)cc1,inactive: 5.97%
25,CC(C)Oc1ccc(C(=O)NCC(c2ccc(N(C)C)cc2)N2CCc3ccccc32)cc1 (stereo unspecified),inactive: 6.82%
26,CCOc1ccc(N(CC(=O)Nc2ccc(OC)cc2)S(=O)(=O)c2ccc(Cl)cc2)cc1,inactive: 12.3%
